According to PMC8533726, “Quantitative Super-Resolution Imaging for the Analysis of GPCR Oligomerization” (Biomolecules, 2021):

Biological target: the molecule itself
Assay: qPAINT (quantitative DNA-PAINT single-molecule super-resolution microscopy); fixed, permeabilised AsPC-1 cells labelled with DNA-coupled anti-P2Y2 antibody; TIRF; DBSCAN clusters of localisations, copy number per cluster from dark times (qi1 0.012 Hz); control cells, cells treated with 100 uM ATP (agonist) or 5 uM AR-C 118925XX (antagonist) for 1 h

B1: purinergic receptor Y2 (P2Y2) (receptor, human (endogenous in AsPC-1), UniProt P41231 1-377, looked up)
chain: MAADLGPWNDTINGTWDGDELGYRCRFNEDFKYVLLPVSYGVVCVPGLCLNAVALYIFLCRLKTWNASTTYMFHLAVSDALYAASLPLLVYYYARGDHWPFSTVLCKLVRFLFYTNLYCSILFLTCISVHRCLGVLRPLRSLRWGRARYARRVAGAVWVLVLACQAPVLYFVTTSARGGRVTCHDTSAPELFSRFVAYSSVMLGLLFAVPFAVILVCYVLMARRLLKPAYGTSGGLPRAKRKSVRTIAVVLAVFALCFLPFHVTRTLYYSFRSLDLSCHTLNAINMAYKVTRPLASANSCLDPVLYFLAGQRLVRFARDAKPPTGPSPATPARRRLGLRRSDRTDMQRIEDVLGSSEDSRRTESTPAGSENTKDIRL
notes: purinergic receptor Y2 (P2Y2), a rhodopsin-like GPCR, endogenously expressed in the pancreatic cancer cell line AsPC-1; Detected in fixed cells with a DNA-labelled anti-P2Y2 antibody (APR-010, Alomone labs), which is only a tool of the experiment; also called P2Y2 receptor; source: endogenous, AsPC-1 cells (fixed, permeabilised)
stoichiometry N: ≥ 3
